Test results as given in article PMC4336329 (PLoS ONE, 2015).
Among all 310,000 compounds or so, about 2,200 (0.71%) showed an effect of 50% or more. Effects have a minus sign here. The list shows a part of the results.

Molecular target: human ether-à-go-go-related gene (hERG) potassium channel (human, UniProt Q12809)
Assay: primary screen, population patch clamp on CHO cells stably expressing hERG

Sequence of human ether-à-go-go-related gene (hERG) potassium channel (Q12809 whole entry, looked up): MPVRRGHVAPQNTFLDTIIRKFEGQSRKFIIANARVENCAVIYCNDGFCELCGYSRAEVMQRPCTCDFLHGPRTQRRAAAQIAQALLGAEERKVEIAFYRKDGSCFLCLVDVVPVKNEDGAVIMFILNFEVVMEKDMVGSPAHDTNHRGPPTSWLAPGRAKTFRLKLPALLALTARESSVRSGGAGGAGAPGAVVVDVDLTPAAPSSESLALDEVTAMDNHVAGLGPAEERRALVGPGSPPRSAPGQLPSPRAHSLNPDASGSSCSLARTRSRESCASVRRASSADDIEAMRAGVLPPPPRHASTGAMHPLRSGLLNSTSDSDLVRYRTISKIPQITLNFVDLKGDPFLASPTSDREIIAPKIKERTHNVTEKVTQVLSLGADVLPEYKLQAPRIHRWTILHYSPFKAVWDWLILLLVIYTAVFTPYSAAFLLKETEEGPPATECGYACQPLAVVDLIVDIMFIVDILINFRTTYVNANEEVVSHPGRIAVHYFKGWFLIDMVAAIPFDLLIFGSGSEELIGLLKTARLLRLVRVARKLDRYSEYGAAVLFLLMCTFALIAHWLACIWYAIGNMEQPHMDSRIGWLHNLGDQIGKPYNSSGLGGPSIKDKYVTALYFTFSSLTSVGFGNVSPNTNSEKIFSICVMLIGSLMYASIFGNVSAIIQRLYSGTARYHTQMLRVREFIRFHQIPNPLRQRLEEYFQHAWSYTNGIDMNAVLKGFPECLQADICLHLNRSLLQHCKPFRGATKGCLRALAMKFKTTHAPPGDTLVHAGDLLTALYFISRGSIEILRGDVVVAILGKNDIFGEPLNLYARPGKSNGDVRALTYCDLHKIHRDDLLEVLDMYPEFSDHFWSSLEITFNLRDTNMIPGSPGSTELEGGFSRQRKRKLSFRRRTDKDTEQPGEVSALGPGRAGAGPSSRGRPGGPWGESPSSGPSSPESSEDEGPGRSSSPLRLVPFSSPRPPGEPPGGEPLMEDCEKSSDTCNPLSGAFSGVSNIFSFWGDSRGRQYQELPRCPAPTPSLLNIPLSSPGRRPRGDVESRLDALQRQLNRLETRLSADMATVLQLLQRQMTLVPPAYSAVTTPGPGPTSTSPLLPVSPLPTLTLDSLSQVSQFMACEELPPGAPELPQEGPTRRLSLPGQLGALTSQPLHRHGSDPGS

Compound | hERG current change (%, negative = inhibition) at 1uM
COc1n[nH]c2nncnc12 | -5.34%
CC(NC(=O)C1CCC(C(C)(C)C)CC1)C(c1ccccc1)N1CCOCC1 (stereo not shown) | 11.3%
CN(C)/C=C/C(=O)c1nnn(C2CCCCC2)c1NC1CCCCC1 | 5.58%
O=C(O)c1cc(Cl)c(Cl)cc1C(=O)Nc1cccc2cccnc12 | 12.7%
CSc1n[nH]c2nc3c(c(=O)n12)C1(CCCCC1)Cc1ccccc1-3 | 8.2%
C#CCNC(=O)C1=C[C@H](c2ccc(C(F)(F)F)cc2)[C@@H](CCCO)[C@H](OCC)O1 | 1.91%
CCCCS(=O)(=O)N1CCN(S(=O)(=O)c2cccs2)CC1 | 16.3%
CCc1ccc(N2C(=O)CC(N3CCN(Cc4ccc5c(c4)OCO5)CC3)C2=O)cc1 (stereo not shown) | -1.13%
C=C1CCN(c2ccc(C(=O)NCCC)cc2[N+](=O)[O-])CC1 | -8.06%
COc1ccccc1NC(=O)c1ccc2c(c1)N(CC#N)C(=O)C(C)(C)O2 | 3.41%
CCCc1cc(C(=O)N2CCCC(Cc3cccc(Cl)c3)(C(=O)OCC)C2)n(C)n1 (stereo not shown) | 10.4%
CCC1Sc2ccccc2N(CC(=O)NCCC2=CCCCC2)C1=O (stereo not shown) | 13.6%
COc1ccc(NC(=O)C(=O)N/N=C\c2ccc(CNC(=O)C(=O)Nc3ccc(C)c(C)c3)o2)c(OC)c1 | 10.4%
c1ccc2oc(-c3[nH]ncc3CN(Cc3ccncc3)CC3CCCO3)cc2c1 (stereo not shown) | 10.4%
CC(C)n1cc(CN2CCCC(CNS(=O)(=O)c3cccc4cccnc34)C2)cn1 (stereo not shown) | 5.26%
CN(C)c1ccc2c3c(ccc(N(C)C)c13)C(=O)OC2 | -27.8%
COc1ccc(OC)c(NC(=O)CNC(=O)Cn2cnc3ccccc3c2=O)c1 | 7.41%
Cc1ccc(C2=NS(=O)(=O)N(C)C(C(=O)NCc3ccccn3)=C2)cc1 | -1.95%
Cn1c(SCc2ccc(Cl)cc2Cl)nc(C(F)(F)F)cc1=O | 4.82%
CC(=O)OC(C(=O)NC1CCCCC1)c1cccc(C)c1 (stereo not shown) | 9.43%
CCCCN1C[C@H](Cc2ccccc2)[C@@H](CC(=O)NCc2ccc(OC)cc2)C1=O | -8.73%
COc1cc(/C=N/N(C)C)ccc1OC(=O)c1ccco1 | 19.7%
CNC(C)CCC=C(C)C.O=C(O)C(O)C(O)C(O)C(O)C(=O)O (stereo not shown) | 13.4%
COCCNC(=O)Cn1c(=O)n(CCCCCC(=O)Nc2ccccc2)c(=O)c2sccc21 | 1.5%
O=C(NCCCN1CCOCC1)c1ccc(N2CCCC2)c([N+](=O)[O-])c1 | 4.41%
CC(C(=O)NC(C)(C)C)N(C(=O)CS(=O)CC(=O)Nc1ccc(F)cc1)c1ccccc1F (stereo not shown) | 12.3%
c1ccc(CSc2nnc(-c3ccco3)o2)cc1 | 8.9%
CCc1cccc(NC(=O)CCc2c(C)nn(-c3ccc(N4CCCCC4)nn3)c2C)c1 | -3.62%

Compound | hERG current change (%, negative = inhibition) at 1uM
COc1ccc(CNn2c(C)nc3ccccc3c2=O)cc1 | 11.7%
C/C(=N/O)c1ccc2ccc3ccccc3c2c1 | 10.7%
CC(C(=O)O/N=C(\N)c1cccnc1)c1ccc([N+](=O)[O-])cc1 (stereo not shown) | -0.629%
C/C(CC(=O)Nc1ccc(N(C)C)cc1)=N\NC(=O)c1ccc(Cl)cc1Cl | 8.35%
O=C(COc1ccc(Cl)cc1)Nc1nnc(C2=COCCO2)o1 | 4.29%
CCc1ccc[n+](-c2nc([O-])sc2C=O)c1 | 13.1%
O=C(O)CCCC(=O)N(Cc1ccccc1)Cc1ccccc1 | 24.4%
Cc1ccc(NC(=O)c2oc3ccc(S(=O)(=O)N4CCOCC4)cc3c2C)c(C)c1 | 9.25%
CSc1ncccc1C(=O)OCC(=O)Nc1ccc2c(c1)OCO2 | 16.5%
COc1ccc(-c2csc3nc(C)n(-n4cccc4)c(=O)c23)cc1 | 4.6%
CCCC(OC(=O)CN1C(=O)COc2ccccc21)C(=O)NC1CCCC1 (stereo not shown) | 1.27%
COc1ccc(NC(=O)c2cc(-c3ccc(OC)c(OC)c3)nc3ccccc23)c(OC)c1 | 11.9%
COc1ccccc1C(=O)NCC(=O)NC(C)CCc1ccccc1 (stereo not shown) | 10.1%
CCc1ccc(NC(=O)CN(C(=O)N2CCN(CC)CC2)S(=O)(=O)c2ccc(C)cc2)cc1 | 16%
COc1ccc(NC(=O)CN(C)C(=O)CSc2ccc3c(c2)OCCO3)cc1 | 8.59%
CCN(CC)S(=O)(=O)c1ccc(NC(=O)CCNC(=O)c2ccccc2)cc1 | 8.18%
Cc1cccc(NC(=O)c2cc(S(=O)(=O)N3CCc4ccccc43)cn2C)c1 | 14.3%
CN(C)CCCNC(=O)C(=O)Nc1ccc2c(c1)N(S(=O)(=O)c1cccs1)CCC2 | 11.3%
O=C(CCc1nc2ccccc2c(=O)[nH]1)NNC(=O)COc1cccc(F)c1 | 5.35%
O=C1NNC(c2ccccc2)=N/C1=C\c1ccco1 | 9.06%
Cc1ccc(NC(=O)NCC2CCN(Cc3cccc(Cl)c3)CC2)cc1Cl | 2.87%
O=C(CCl)Nc1cccc(-c2cnc3ccccc3n2)c1 | 3.28%
CCOC(=O)N1CCc2c(sc3c2c(=O)n(-c2ccc(CC)cc2)c(=O)n3CC(=O)NCC2CCCO2)C1 (stereo not shown) | 18.3%
Cc1cc2c(cc1C)/C(=C\C(N)=O)NC(C)(C)C2 | 1.14%
Cc1nc2ccccc2c(=O)n1/N=C/c1cccs1 | 7.62%
CCOC(=O)c1c(C)nc2sc3c(=O)n(-c4ccc(OC)cc4)nnc3c2c1-c1ccc(OC)cc1 | 6.27%
O=c1c2[nH]c3cccc(Cl)c3c2ncn1CC1CCCO1 (stereo not shown) | 6.28%
